The other results are listed elsewhere or left out.
T1: UNK ZnF1-6 (called full-length) (human, UniProt Q9C0B0 30-357)
T1 sequence: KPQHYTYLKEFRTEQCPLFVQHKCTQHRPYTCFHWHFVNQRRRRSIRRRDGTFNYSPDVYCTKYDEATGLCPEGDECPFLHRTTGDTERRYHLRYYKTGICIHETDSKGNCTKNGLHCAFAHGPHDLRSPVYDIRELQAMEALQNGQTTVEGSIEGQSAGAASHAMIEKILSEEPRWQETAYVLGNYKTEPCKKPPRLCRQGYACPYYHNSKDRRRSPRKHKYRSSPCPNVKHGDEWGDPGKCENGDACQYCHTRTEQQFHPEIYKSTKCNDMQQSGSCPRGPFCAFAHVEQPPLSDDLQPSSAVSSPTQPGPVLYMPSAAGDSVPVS

B1: chr1:23854467:23854568:-|CDS|ENSG00000179163|unk|total|mutant (ssRNA)
RNA: GGGAGUUCUACAGUCCGACGAUCAAGUCAAGUGGUUUUACUCCUCAUGACCAAAUAUUCUUUCCCUCCUCCGGAUGAGGUGGCCGUAAAUGACCGAUGGGGUCAGAACUGUUCCUGUCACCAUGGAGGAUACUAUAACUGUGACAACAGAGGAUUGAGCAUCA
B2: chr10:128103381:128103482:-|CDS|ENSG00000148773|msi1|FALSE|unique (ssRNA)
RNA: GGGAGUUCUACAGUCCGACGAUCAACUGGCAGCAGGAGACGGCCAAGAGCACCCAGGGAAAGUGCCCAAGCCAUAGAAGACCUAGCUGGCUUCAAAGACCCAGCAGCAGGUCACACUGAAGAAUCAAUGACUGAUGACAAAACCAACAGAGGAUUGAGCAUCA
B3: chr1:235182574:235182675:-|CDS|ENSG00000054267|unk|total|mutant (ssRNA)
RNA: GGGAGUUCUACAGUCCGACGAUCUUUGACCAACAACAGAAAUGAUCUUAUUUCAAAGGAGGAACAGAACAGUUCAUCUUUGCCCGAAGAAAACAAAGUUCAUGCAGAUUUGGUAAUAUCCAAACCAGUGUCAAAAUCUCCAGACAACAGAGGAUUGAGCAUCA
B4: ENSG00000136451:be:win_1701|3pUTR|ENSG00000136451|bound_else_gene|NA|bound_elsewhere_windowed (ssRNA)
RNA: GGGAGUUCUACAGUCCGACGAUCUUUCUCCAAUUUGGCUGGGAUUAUUCAAAGUAGGGUGUGUAUGUAACUUAUCACUGGACCACUUUAGUUUAAUCAGAAAUUCCUUUUAGCUGACAACAUUGCUUAAACAGGAUAGUAGUUCAACAGAGGAUUGAGCAUCA
B5: chr14:106235063:106235368:-|CDS|ENSG00000211947|control|control|control (ssRNA)
RNA: GGGAGUUCUACAGUCCGACGAUCUGGGUCCGCCAGGCUCCAGGGAAGGGGCUGGAGUGGGUCUCAUCCAUUAGUAGUAGUAGUAGUUACAUAUACUACGCAGACUCAGUGAAGGGCCGAUUCACCAUCUCCAGAGACAACGCCCAACAGAGGAUUGAGCAUCA
B6: chr12:32755127:32755228:-|CDS|ENSG00000139131|unk|FALSE|unique (ssRNA)
RNA: GGGAGUUCUACAGUCCGACGAUCCUUCUAUUACCUCUUCCAGCGUUAUGGAUGCAGGGUCCAGCUGGGCGGAUCUGAUCAACUAGGCAACAUCAUGUCCGGAUAUGAGUUCAUCAACAAGUAAGUGCCUUUAAACCUUGGGGACAACAGAGGAUUGAGCAUCA
B7: chr6:125978377:125978478:+|3pUTR|ENSG00000111911|unk|FALSE|unique (ssRNA)
RNA: GGGAGUUCUACAGUCCGACGAUCAAUUUUGCCUCUAAUAACAUAAAGGGGGAAGAAACAUAAAGUGGUUCUCUUAAUAAAACUAGCAGAAAAUGUUGCUUUAUGGCAUGUUUUUGUAUCAAAGAGAAAUCAGAGGUUAAACUUCAACAGAGGAUUGAGCAUCA
B8: chr18:62902975:62903076:+|CDS|ENSG00000081913|unk|total|mutant (ssRNA)
RNA: GGGAGUUCUACAGUCCGACGAUCAGUGGACUUUCUACAGCAUGUUACUCAGCUUGACCUACGAGACAAUAAGCUUGGUGAUCCCGAUGCUAUGAUUUUCAACAACAUUGAAGUUUUACACUGUGAAAGGAAUCAACUGGUCACCAACAGAGGAUUGAGCAUCA
B9: chr17:19383441:19384461:-|three_prime_utr|ENSG00000166482|control|control|control (ssRNA)
RNA: GGGAGUUCUACAGUCCGACGAUCUACACCUGAAGUUACACUGCCAGCAGUUCCCCAGGCCUCUUCCGAGAGGCACAUGGUUCUAGCCUGGACCUGGCUGGGCUCCAUGAGAAUGAGUUGCCUCCAACCUGUCCCAACAGCUGACAACAGAGGAUUGAGCAUCA
B10: chr8:9779869:9779970:+|3pUTR|ENSG00000173273|msi1|FALSE|unique (ssRNA)
RNA: GGGAGUUCUACAGUCCGACGAUCGGAAUUUCUAGCUUUUCAAGCAGCAUAAGUAGAAUCAACAUUAGGAUGUUUUCAUGAAAUAGCAUCCUUAUACUUCUUUGAGCUUGAUGUUAGUGGCUAGACUGAUUUCCCUUUGCUCUCCAACAGAGGAUUGAGCAUCA
B11: ENSG00000142156:stop:overlap|stop_codon|ENSG00000142156|stop_codon|NA|stop_codon (ssRNA)
RNA: GGGAGUUCUACAGUCCGACGAUCACCAGGCCCUGCUCCGCGGUGUCUUCCACCAGACAGUCUCCAGGAAGGUGGCGCUGGGCUAGCCCACCCUGCACGCCGGCACCAAACCCUGUCCUCCCACCCCUCCCCACUCAUCACUAACAACAGAGGAUUGAGCAUCA
B12: chr14:103519669:103519777:-|3pUTR|ENSG00000166165|unk|FALSE|unique (ssRNA)
RNA: GGGAGUUCUACAGUCCGACGAUCCUGAUGUUCGCCGUCUGGCGAGCCCUUAGCCUUGCUGUAGAGACUUCCGUCACCCUUGGUAGAGUUUAUUUUUUUGAUGGCUAAGAUACUGCUGAUGCUGAAAUAAACUAGGGUUUUGGCCAACAGAGGAUUGAGCAUCA
B13: chr9:113264340:113264441:+|3pUTR|ENSG00000136868|msi1|FALSE|unique (ssRNA)
RNA: GGGAGUUCUACAGUCCGACGAUCAAAGUCUGCAUUUGAUAUAAUGCCUUAAUUACUGGGUCUACAAUUAAUGUUGACUGUUUUAGAUUGUAAGCUCCUGGAGAGCAGUAUUGCUGUAGUAGGAAUGUUUUAACAGUGUCAUAUCAACAGAGGAUUGAGCAUCA
B14: chr15:69271217:69271318:+|3pUTR|ENSG00000138604|msi1|FALSE|bound_elsewhere (ssRNA)
RNA: GGGAGUUCUACAGUCCGACGAUCGCAACAGCAAGUUGAUUUCUUGUGAUCCCAGAAUUUUCUAAGAGGAUGAGUUGAAUCUAUAGCAGCAUUGUCAGUACAGACCAGUGGUUCUCAAACUUUAAAAUGCCUCAGCAUCACUUGCAACAGAGGAUUGAGCAUCA

Each binder was assayed against T1, UNK ZnF1-6 (called full-length) (assay: nsRBNS (natural sequence RNA bind-n-seq); RBNS binding buffer (assumed for nsRBNS): 25 mM Tris pH 7.5, 150 mM KCl, 3 mM MgCl2, 0.01% Triton X-100, 500 ug/ml BSA, 20 U/ml SUPERase-In, 4 C; UNK is unkempt and MSI1 is Musashi-1; names of the RNAs are library labels; protein concentration not given here; high values mean tight binding).

Binder | binding signal
B1 | 0.488 enrichment R
B2 | 0.741 enrichment R
B3 | 0.182 enrichment R
B4 | 1.31 enrichment R
B5 | 1.06 enrichment R
B6 | 0.612 enrichment R
B7 | 0.386 enrichment R
B8 | 0.322 enrichment R
B9 | 0.652 enrichment R
B10 | 0.353 enrichment R
B11 | 0.516 enrichment R
B12 | 0.722 enrichment R
B13 | 1.72 enrichment R
B14 | 0.349 enrichment R
